# The source gives no read counts; variants with many changes may rest on few reads.
# B1: LINE1-mini (parent)
# chain: GGCAGAGCUCAACACAGCGUGGCAAAGUGGCUGUGGCUAGACUGCC
# Variants of: B1
# Experiment: self-cleavage, relative activity (ratio to wild type); higher = more cleavage; in vitro, sequencing; the parent is a self-cleaving ribozyme
row,Variant,self-cleavage
1,G2C A12G G30U G40U,0.38
2,G2C A12C A16G C23A C37G,0.02
3,G2C A12G C13G G17A A39U,0.03
4,G2C A12U C23A,0.03
5,G2C A12U C23U,0.05
6,G2A G36U A39C,0.03
7,G2C A11U A12U U43A G44C,0.03
8,G2C C3G C15U G33U,0.04
9,G2C C10A G35U G40U C42A,0
10,G2C A25G U32A C42G G44C,0.01
11,G2A G40C A41U C46A,0.08
12,G2C C3A A6C A12C A24C C42G,0.01
13,G2C A6C A11U U43C,0.03
14,G2C C3G G22C A24G A26U,0.09
15,G2C A4U A12U C13G G40A,0.21
16,G2C C3A G30U,0.68
17,G2C C3U C18A G36U,0.07
18,G2A G36A A39G C42A,0.1
19,G2A U9G A16G A41C,0.13
20,G2C C3A G5U C10U A11C,0
21,G2C C3A A4C C10U U20G,0.09
22,G2C A16G G21C G30A,0.53
23,G2A G44A C45U,0.13
24,G2A U34A C45A,0.05

row,Variant,self-cleavage
1,G2C A6U A14U A16C,0.3
2,G2C C3A A6U,1.49
3,G2C A11C G36U A39G,0.01
4,G2A U9A A14U,0.18
5,G2A U28C G30C,1.1
6,G2C C8A C13A G35U C45A,0.19
7,G2A U20A A26C G44U,1.04
8,G2C A26U U38G,0.02
9,G2C A12G A24U A39G G44C,0.02
10,G2A U32G C42A,0.19
11,G2A G27C U28C,0.19
12,G2C A11U G27U G40U,0
13,G2C A11G U20C,0.01
14,G2C C3U G17U A26G,0.08
15,G2C C10A A14G G19A A25U G33U A39U,0
16,G2A U20C A24G C31G A41C,0.1
17,G2C A11G C18U G30A U43A,0.01
18,G2C C3U A6C,0.05
19,G2C A6C G19C,0.06
20,G2A U34G C46U,0.24
21,G2C C3A U28G,0.09
22,G2A U9A U43G,0.34
23,G2C A12U U20A C37A,0.02
24,G2A G35U U43G,0.14

row,Variant,self-cleavage
1,G2C A4U U28G,0.02
2,G2C A11C G44U,0.02
3,G2C A14U C15A A26U G27A G29C G36A,0.1
4,G2A U9A C15A G35A,0.5
5,G2C A4C C13U,0.11
6,G2A U28C G35U,0.04
7,G2C C8U G40U,0.32
8,G2A G40A G44U C46U,0.36
9,G2C A16G G21A C23A G35A C37U,0.04
10,G2A G29C G36A C45G,0.05
11,G2C C3A G27U U28A G30C U43G,0
12,G2C C3A C31A,0.05
13,G2C A16U A26C,0.03
14,G2C C3U G7C A14U A41G,0.19
15,G2C A4C C10G G21C,0.03
16,G2A U9A C10A G40U C46A,0.09
17,G2C A6U A12G C23U C37U,0.21
18,G2C C3A G7C C8G A39G C42U C45A,0.01
19,G2C C10A A14G C15A C18U G29U G30A C45G,0.02
20,G2C A16G G19A G22C G36A,0.02
21,G2C A24G G36A,0.12
22,G2C A4U C23A A26C U28C C42U,0.07
23,G2A G21C C46A,0.47
24,G2C A12G G22U U38G,0.04

row,Variant,self-cleavage
1,G2C C8U G30U C42U,0.09
2,G2A G21A G27C G33A C42A,0.05
3,G2C A11C G29A,0.01
4,G2C A6C A25U G30A C45A,0.07
5,G2A G21C U32G C45A,0.22
6,G2C A6U A39G,0.08
7,G2C A4G G17A G27C G33U,0.07
8,G2C A6G C8U G33U U38G,0.03
9,G2A U9A A14C C18A G22A,0.07
10,G2C A4C A25G U28C G29U,0.2
11,G2A U9A G22C,0.21
12,G2C A11C G22U G35C,0.02
13,G2C A4U G7A U34C,0.43
14,G2C A25C U38G G40A,0.04
15,G2A G21U C31A,0.07
16,G2A G27U G40U,0.34
17,G2C C3A G36A G44U,0.1
18,G2C A4U C15U G17C,0.1
19,G2A U32C G40A,0.02
20,G2A U9C A11C A25C,0.02
21,G2C C10A A39U,0.07
22,G2C C8G G33U G35A G40C C45U,0.02
23,G2C A25U C31U,0.12
24,G2C A4C C10A C18G G22A C31A G33U,0.01

row,Variant,self-cleavage
1,G2C C8A G22A A26C G36U,0.17
2,G2A G33U C46A,0
3,G2C A6U G19C A39U,0.04
4,G2C A24U G27A U34C C46A,0.08
5,G2A G35U C45G,0.03
6,G2C A14U G29U G36C C37A U38C,0.08
7,G2C A12G C15U C18G G33U A39U,0.07
8,G2C A26G G36U,0.09
9,G2A G29A G30U,0.57
10,G2A U28A G36A,0.61
11,G2A G21U A25C G27U,0.6
12,G2A U34G U43A,0.06
13,G2C A24G G35U A41U,0
14,G2C A12G C37U,0.03
15,G2C A4U U32A,0.04
16,G2C C3G C13G G17C G22A G27U C31U,0.04
17,G2C A14C C18A,0.07
18,G2C C8G G40U A41G,0.01
19,G2C C8U G29U G44C,0.89
20,G2C C3A A11U U32G G35U,0.07
21,G2C C3U U9G U28A,0.04
22,G2A U20G A26C,0.1
23,G2A U9C G21U,0.06
24,G2C C3U C13U A16U G36C C37A U43C G44U C45A,0.02

row,Variant,self-cleavage
1,G2C A14C U32A G33U U34C C37A,0.02
2,G2C A16C U34C,0.14
3,G2A G44C C45U C46A,0.02
4,G2A U9C C10A C45U,0
5,G2C C3G G17C G27U G30U,0.07
6,G2A U20G G21U U32G A39U C46G,0.21
7,G2A U20A U34G,0.11
8,G2A G21U A25G G27A C31G G35U C37A G40A,0.01
9,G2C A14U A26C G30U G36U C37G,0.08
10,G2A G21U C37U U38G,0.05
11,G2C A14U C15A G22A A41U,0.09
12,G2C C3G C45A,0.06
13,G2C A11C C31U,0.03
14,G2C A26C G29U,0.07
15,G2A U20G C31A C37A U38C,0.01
16,G2C C8U A11U U34G,0.04
17,G2A G22A A24U,0.4
18,G2C C3G G22U G33A,0.08
19,G2A G27C G44C,0.83
20,G2A G30A U32G G33U G35C A39C,0.05
21,G2C A12C C18A A25G C45G,0.01
22,G2C A6U G22C C23U A26C C37G A41G,0.17
23,G2C A4C G5A G7C G30A,1.1
24,G2C C8U C18U G33U C42U C46U,0.05

row,Variant,self-cleavage
1,G2C C3A A26C,0.05
2,G2C A12C G17C G30A,0
3,G2C A11G G22U G36U U43C,0
4,G2A U9G C15A G22C G40A,0.06
5,G2A G22A G40C,0.03
6,G2C C8G G29U,0.05
7,G2C A24U G30U U32G,0.04
8,G2C C10A A11C G22U G35A,0.03
9,G2C A26U G44C,0.14
10,G2C A12G G22C U28G C42U,0.02
11,G2C A12G G36C G44C,0.06
12,G2A G29U G36A C37U,0.95
13,G2A U9G C13U,0.21
14,G2C C8G G36A C46A,0.04
15,G2A G29A C31G C45A,0.23
16,G2C A25U U28A,0.05
17,G2C C3G C8U G27A A39C C45U,0.04
18,G2C A12G C18G G22A,0
19,G2C A6G U9C G17C G22A,0.01
20,G2C C8G C15A G17U,0.07
21,G2A U9C A16C C23G,0.04
22,G2C A16U C46U,0.09
23,G2C A14C G33A,0.22
